Some of the results follow. The list includes weakly bound sequences.

This test deals with MaxL homodimer (UniProt P61244). The test is described as follows: universal protein-binding microarray (PBM). The conditions noted are these: PBS-based mixture, 10 nM His-tagged protein dimer, 2% milk, 200 ng/uL BSA, 50 ng/uL salmon testes DNA, 0.02% TX-100; detection with Alexa 488 anti-His …; high values mean tight binding; most listed sequences are background and not binding sites; double strand, one strand shown.
Chain of UniProt P61244 (P61244 whole entry): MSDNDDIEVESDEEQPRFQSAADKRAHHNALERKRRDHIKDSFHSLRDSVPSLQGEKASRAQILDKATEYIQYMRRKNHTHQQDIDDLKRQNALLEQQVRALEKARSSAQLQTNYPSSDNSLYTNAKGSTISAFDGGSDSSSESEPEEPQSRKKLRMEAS
On to GACGTCAC, for which the binding signal (normalized occupancy) worked out at 0.0804. The value for AGGTGAAC was 0.0741; that for GCCTAGTA was 0.0707. For ATATTCAA, the binding signal (normalized occupancy) turned out to be 0.0746. The value for CCTGTAAC was 0.0755; that for CATACCCC was 0.0865. The value for ACAGATCT was 0.0745; that for ACAGCATA was 0.0896. Regarding ACTGTTAG, the binding signal (normalized occupancy) was 0.069. In the case of ACTGCTTA, the binding signal (normalized occupancy) worked out at 0.0691. TCTTCTCA: the binding signal (normalized occupancy) turned out to be 0.0759.

With TTCGCGAA, the binding signal (normalized occupancy) stood at 0.0713.

AAGAAGTG: the binding signal (normalized occupancy) was 0.0785.

Turning to CCATTAGA, the binding signal (normalized occupancy) was determined as 0.0743. With AACCGTAC the figure was 0.0755; with CCCATAGA, 0.0816. The value for GATACGTA was 0.0774; that for ACGTGCAA was 0.098; that for CAGAATCC was 0.0733. As to CCTCTTCG, the binding signal (normalized occupancy) was found to be 0.0738.

AATGTTGG: the binding signal (normalized occupancy) turned out to be 0.0822. The value for ACCCTTCA was 0.0744; that for GAATTCGC was 0.0671. Turning to CGCTTTAG, the binding signal (normalized occupancy) came to 0.0703. For the sequence CTATAAAA, the binding signal (normalized occupancy) worked out at 0.0774. Take CACTTATC: the binding signal (normalized occupancy) worked out at 0.0778. The value for ATCTAGTG was 0.078. As to GGCTGATA, the binding signal (normalized occupancy) came out at 0.0751. With ACATGGAA, the binding signal (normalized occupancy) is 0.0918.

As to ACTACCAT, the binding signal (normalized occupancy) was 0.0792. With CAAGAGTC the figure was 0.0647. The value for CCCCCGAG was 0.076; that for CGCCGATA was 0.0749; that for ATTGAGCG was 0.0707. Turning to GGACACGA, the binding signal (normalized occupancy) was determined as 0.0805. With GTAGACAA the figure was 0.0807.

With GGAGAAAC, the binding signal (normalized occupancy) turned out to be 0.0778. The value for CGACGTCA was 0.0748; that for CTGCCATC was 0.0793.

Regarding ACAATCGT, the binding signal (normalized occupancy) worked out at 0.0764. With CCTAGACG the figure was 0.0677; with CTCAGCCA, 0.0752; with AAGTCCAA, 0.0685. For ATCGGAGG, the binding signal (normalized occupancy) is 0.0719. With AGCACCGG, the binding signal (normalized occupancy) was 0.074. Turning to CTGATATA, the binding signal (normalized occupancy) was determined as 0.0784. The value for ACGCACTA was 0.0766; that for CCAGCCCA was 0.068; that for AGTAAGTA was 0.0783. For CGCATTCC, the binding signal (normalized occupancy) was found to be 0.0738. With CACGTATA the figure was 0.0829; with CGGCTGAC, 0.0716; with AAAGGACT, 0.076. With CAGATCGC the figure was 0.0677; with CAGGTTCA, 0.0757; with ATTTTGTA, 0.0715. Turning to ATGGCGCA, the binding signal (normalized occupancy) was 0.0778. CACTTACC: the binding signal (normalized occupancy) is 0.0761.

In the case of ACAATGTA, the binding signal (normalized occupancy) was determined as 0.085. With TGCCGGCA the figure was 0.0761; with CAAACGAG, 0.0736; with AATTTCTA, 0.0767. In the case of CACCCCTG, the binding signal (normalized occupancy) stood at 0.0814. As for CACGGCGC, the binding signal (normalized occupancy) worked out at 0.0735. Take AAATGGTC: the binding signal (normalized occupancy) amounted to 0.078. Turning to ATACATAG, the binding signal (normalized occupancy) came to 0.0774. With TCGGTGCA the figure was 0.0712; with CTTGATGC, 0.0757. Consider CAAGGTCG, for which the binding signal (normalized occupancy) was 0.0698. For the sequence CGCTATAC, the binding signal (normalized occupancy) stood at 0.0775. Take ATGTCGGA: the binding signal (normalized occupancy) is 0.0778. With GTCGAGTA the figure was 0.0742; with GTACACAC, 0.0842. For ATGGTGGC, the binding signal (normalized occupancy) came out at 0.0852. With CGGATCGA, the binding signal (normalized occupancy) is 0.0731. The value for TAGGCTAA was 0.0678; that for AGGCGTGG was 0.098; that for GACGGTCC was 0.0678. CCTACTCC: the binding signal (normalized occupancy) worked out at 0.0781.

For GACTGTGC, the binding signal (normalized occupancy) was found to be 0.0769.

In the case of AGCGCTAA, the binding signal (normalized occupancy) is 0.0686.

On to ATAAAAGC, for which the binding signal (normalized occupancy) came out at 0.0779. The value for GCGGCACC was 0.0711; that for GCCGAGGC was 0.0691; that for AATCCCTG was 0.0749. The value for GTTCCGGA was 0.0676. The value for GTTCGGAA was 0.0709; that for ACTACTCG was 0.0816. Consider TACTGTGA, for which the binding signal (normalized occupancy) amounted to 0.0738. Turning to GATTGGGA, the binding signal (normalized occupancy) came out at 0.076. In the case of GGACATGA, the binding signal (normalized occupancy) is 0.0803. As to AGTTTACC, the binding signal (normalized occupancy) was 0.0716. For the sequence CATCATGA, the binding signal (normalized occupancy) amounted to 0.0846. With AGCGGATC the figure was 0.0698; with AGGGTACA, 0.0761. For the sequence GGATTCCC, the binding signal (normalized occupancy) stood at 0.0689. On to TATTGCGA, for which the binding signal (normalized occupancy) was 0.0779.

As to ATGATAAA, the binding signal (normalized occupancy) came out at 0.0793. The value for GGCCGCCC was 0.0664; that for AAGTGTAG was 0.0767; that for TCTTCGAA was 0.069. On to AGTACCAG, for which the binding signal (normalized occupancy) is 0.0708. With ATAGAGGG, the binding signal (normalized occupancy) came to 0.0791. With GTCCACAC the figure was 0.0845; with ATATTCGA, 0.0814.

In the case of GACTCCGA, the binding signal (normalized occupancy) came to 0.0695. With AGGTATGA the figure was 0.0848; with ACGTACTG, 0.0773; with CGAATTAG, 0.074. On to GGAGGACA, for which the binding signal (normalized occupancy) worked out at 0.0815.

In the case of ACCGAGCA, the binding signal (normalized occupancy) turned out to be 0.0683. As for AAGAACAG, the binding signal (normalized occupancy) came to 0.0731.

For AACTTTCG, the binding signal (normalized occupancy) is 0.074. The value for GACGCCGC was 0.0708. For the sequence ATCATCTA, the binding signal (normalized occupancy) turned out to be 0.0805. The value for GGGCCGCA was 0.0799.

On to GACAATAC, for which the binding signal (normalized occupancy) came out at 0.0781.

As for CGCACTAC, the binding signal (normalized occupancy) was found to be 0.0743.

For the sequence TATACTCA, the binding signal (normalized occupancy) is 0.0776. The value for ATTCTTTC was 0.0747; that for CATTACCG was 0.0757; that for GAGCGAGC was 0.0678. With CTGTTAAA, the binding signal (normalized occupancy) came out at 0.0748. With AGGAGAAA the figure was 0.0735.

As for CACAGAGC, the binding signal (normalized occupancy) stood at 0.0736. The value for GTTAGGCA was 0.0756; that for CTGTTTTA was 0.0767. For the sequence CCATTACC, the binding signal (normalized occupancy) was 0.0715. With CTAAATCC the figure was 0.071. The value for GAAACATA was 0.0848; that for CCACCTAG was 0.0714.

With ATAGTCGG, the binding signal (normalized occupancy) came to 0.0724.

With ATGCGCTC, the binding signal (normalized occupancy) was 0.0847. With GAGGCTCA the figure was 0.07; with ATTAGCCG, 0.0727. With ATTATACC the figure was 0.0816. In the case of CCACGTGG, the binding signal (normalized occupancy) is 0.971. Consider ATTACGGA, for which the binding signal (normalized occupancy) turned out to be 0.0797. For CAAAATCA, the binding signal (normalized occupancy) amounted to 0.0749. With AGGACTAC, the binding signal (normalized occupancy) worked out at 0.0744. AATAACAC: the binding signal (normalized occupancy) came out at 0.0908.

As to ACATTACC, the binding signal (normalized occupancy) is 0.0868. Regarding CAGTGACC, the binding signal (normalized occupancy) is 0.0802. With AACTCTAC the figure was 0.0729; with TCTCAAGA, 0.0757. For the sequence CATCAGTC, the binding signal (normalized occupancy) was 0.0762. In the case of CGTAACAA, the binding signal (normalized occupancy) amounted to 0.0751. As to CATCCCAA, the binding signal (normalized occupancy) was 0.0789. The value for GTTAAAGA was 0.0776; that for CAAGTTTA was 0.0742; that for CACAGCCG was 0.0698.

As to CTTCCGGA, the binding signal (normalized occupancy) turned out to be 0.0629. The value for ATATCGTC was 0.0819. With GTCGATTA the figure was 0.0759. Consider CGGTGCCA, for which the binding signal (normalized occupancy) amounted to 0.0723. The value for CGAGTAAA was 0.0759; that for AAACCCTT was 0.0745. In the case of ATGTGACA, the binding signal (normalized occupancy) amounted to 0.0901. With ACGCCCAC the figure was 0.0879; with CATAAGGC, 0.0829; with CCAGTCAG, 0.0724. With AAGTCGTA the figure was 0.0752. Turning to CACCTGCA, the binding signal (normalized occupancy) was 0.0843. With GGATAAGA the figure was 0.0785; with AGTGCAGG, 0.0726. GGGAGCAA: the binding signal (normalized occupancy) was found to be 0.0719. As for ACAGAAAA, the binding signal (normalized occupancy) was determined as 0.0727. As to GCCTCCTA, the binding signal (normalized occupancy) stood at 0.0722. The value for CCCAATAG was 0.0758; that for CCAGCGAA was 0.0664.

Regarding CGAGGCTA, the binding signal (normalized occupancy) was found to be 0.0772. AACATGGG: the binding signal (normalized occupancy) amounted to 0.0935.

The values are drawn from paper PMC4242493.
